T1: human CD20 (membrane spanning 4-domains A1, MS4A1) on cells (human, UniProt P11836 1-297)
T1 construct: whole, on cells; Target cells used: Raji, K562-CD20, CHO-CD20, Daudi, RPMI-8226 (very low CD20); also called CD20 receptor; CD20 antigen
T1 sequence (looked up): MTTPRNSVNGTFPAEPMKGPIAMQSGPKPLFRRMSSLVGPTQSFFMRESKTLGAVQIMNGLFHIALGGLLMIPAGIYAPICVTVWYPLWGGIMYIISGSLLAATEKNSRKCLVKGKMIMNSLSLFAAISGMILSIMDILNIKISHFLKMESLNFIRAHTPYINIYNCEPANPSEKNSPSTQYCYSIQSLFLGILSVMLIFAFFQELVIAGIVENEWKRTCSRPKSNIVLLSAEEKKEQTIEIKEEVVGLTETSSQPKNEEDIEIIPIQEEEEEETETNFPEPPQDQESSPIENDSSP


What was measured:
[1] = molecular target: T1, human CD20 (membrane spanning 4-domains …); test: flow cytometry, mAb titrated on Raji cells, PE anti-human IgG1 Fc detection
From the text: (§1) Each of three exemplary of anti-CD20 VHH sequences (clone ID: VHH-273, VHH-466 and VHH-496) with human IgG1 Fc fragment sequence (SEQ ID NO: 159) were cloned into a mammalian expression vector—pcDNA3.4, to facilitate the recombinant protein expression. The DNA codons were further optimized for optimal expression in mammalian host cell—Expi293F. The antibodies were harvested from the supernatant of cell culture, one-step purified by MabSelect SuRe LX and sterilized via a 0.2 μm filter. The purified antibody concentrations were determined by A280 and reached 2-6 mg/mL with ˜90% purity. Anti-CD20 scFv-huIgG1Fc mAb with amino acid sequence of Rituximab (C2B8) scFv shown in SEQ ID NO: 158 and anti-CD20 Fab-huIgG1Fc mAb with amino acid sequences of Leul6 VH-CH1 and VL-CL shown in SEQ ID NO: 163 and SEQ ID NO: 164 were used as positive controls for the cell surface binding assay. CD20 positive cell lines—Raji, K562-CD20 and negative cell line—K562 were re-suspended in complete culture medium, cells concentration was diluted to 1×10⁶ cells/mL and the staining was performed in 2×10⁵ cells per well. The mAbs were serially diluted from maximal concentration of 2000 nM (3-fold reduction, 12 pts) and added according to the experimental plan and protocol. The mAbs and cells were co-incubated for 1 hour at 4° C. Then, the cells were washed with […] of DPBS+0.5% FBS and spun at 300 g for 5 mins, 4° C. The cells were stained with the detection antibody—PE-conjugated mouse anti-human IgG1 Fc (BioLegend, Cat. #409304, 1:100) for 40 mins at 4° C. The cells were then washed again and re-suspended with 200 μL of DPBS+0.5% FBS for flow cytometric analysis on a NovoCyte Flow Cytometer (ACEA Biosciences). The FACS data was analyzed by Novoexpress software, and the MFI (median fluorescent intensity) was analyzed by GraphPad PRISM version 6.0.

[2] = molecular target: T1, human CD20 (membrane spanning 4-domains …); test: as above; remark: listed apart in the source
From the text: as §1

[3] = molecular target: T1, human CD20 (membrane spanning 4-domains …); test: flow cytometry, mAb titrated on K562-CD20 cells, PE anti-human IgG1 Fc detection
From the text: as §1

| EC50 [1] [nM] | EC50 [2] [nM] | EC50 [3] [nM] | Binder |
| --- | --- | --- | --- |
| 13.5 | 16 | 5.1 | VHH-496-huIgG1Fc mAb (Fc fusion, VHH placed before the Fc after the name VHH-huIgG1Fc; also called anti-CD20 VHH-huIgG1Fc mAb (VHH clone ID: VHH-496); VHH-496-huIgGIFc mAb) QIQLVESGGGLVQPGGSLRLSCAASGFTFSNYPMTWLRQAPGKGLESVSDITSGGDRPYYADSVKGRFTISRDNAKNMLYLEMNSLKTEDTAVYYCATWDRTLTGQGTQVTVSS[human IgG1 Fc not printed] |
| 9.8 | 14.3 | 4.9 | VHH-273-huIgG1Fc mAb (Fc fusion, VHH placed before the Fc after the name VHH-huIgG1Fc; Expressed in Expi293F; also called anti-CD20 VHH-huIgG1Fc mAb (VHH clone ID: VHH-273)) EVQLVESGGGLVQAGGSLRLSCAASGRTFSSYNMGWFRQAPGKEREFVAVVDWSGGSPYYADSVKGRFTISRDNGKNTVYLQMNSLKPEDTAVYYCAGRVQYGSSWSGDYWGQGTQVTVSS[human IgG1 Fc not printed] |
| 8.9 | 9.12 | 4.7 | VHH-466-huIgG1Fc mAb (Fc fusion, VHH placed before the Fc after the name VHH-huIgG1Fc; also called anti-CD20 VHH-huIgG1Fc mAb (VHH clone ID: VHH-466)) QVHLVESGGGSVQAGGSLRLSCQASADIRLFYLMGWFRQAPGKEREEVARVNADDSINYVASVKGRFTISKDNAKNTLYLQMDSLKPEDTATYYCAAGRTWNSGFEYWGQGTQVTVSS[human IgG1 Fc not printed] |
